# In PubChem BioAssay AID1347071 (National Center for Advancing Translational Sciences (NCATS), 2019):
# About 260 (0.063%) of roughly 410,000 compounds were called active. Inconclusive means that the source gave no clear call. Such entries were picked first, then a sample of the others. Calls come from the whole dose curve; as a rule, active = well fitted activation curve with a large enough effect; inconclusive = small, poorly fitted or top-dose-only effect; inactive = no such curve, though single readings can be large or run the other way. Potencies of inconclusive entries are left out as doubtful fits.
# Test: qHTS for compounds that reverse cellular toxicity of Amyloid beta (A-beta) peptide in yeast: Primary Screen; note: nearly all actives have a fitted effect of over 55% in size
# Conditions: yeast expressing A-beta42, growth rescue, OD600, 48 h; growth rescue: at 46.1 µM (top of the series), 0% DMSO, 100% iron-clioquinol control
# Procedure, shortened: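 Growth rescue measured by 600 nm absorbance after 48 h yeast culture at 30 C with compound. Values normalized between DMSO and an equimolar ferric chloride plus clioquinol control.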
# Potency is the fitted concentration of half-maximal effect; tags give direction and shape of the fitted curve.
Structure (SMILES),Potency,growth rescue
Cc1noc(C)c1COC(=O)c1ccc(S(=O)(=O)NCc2ccco2)cc1,"inconclusive [activator, partial curve]",–
Cc1ccccc1NC(=S)NC(=O)c1cncc(Br)c1,"inconclusive [activator, partial curve, poor fit]",–
Cc1ccc(-c2nc(C)sc2CC(=O)OCC(=O)Nc2ccc(F)c(Cl)c2)cc1,"inconclusive [activator, single point]",–
COc1ccc(-c2cn3cccnc3n2)cc1NC(=O)Nc1cc(C)ccc1C,–,inactive: 8.89%
CC(C)Oc1ccc(CCC(=O)NNC(=S)Nc2ccccc2)cc1,"inconclusive [activator, partial curve, poor fit]",–
CN(C)CCN(Cc1ccco1)C(=O)c1cc2c(s1)-c1ccccc1OC2,–,inactive: -19.2%
COc1ccc([C@@H]2Sc3ccccc3NC(=O)[C@@H]2O)cc1,"inconclusive [activator, single point]",–
COc1ccc(NC(=O)Cn2c(=O)oc3cc(S(=O)(=O)N4CCCCC4C)ccc32)cc1 (stereo unspecified),–,inactive: -5.37%
CCOC(=O)c1ccc(NC(=S)N2CCSC2c2ccc(Br)cc2)cc1 (stereo unspecified),"inconclusive [activator, single point]",–
CCOc1ccc(NC(=O)NNC(=O)c2ccc(CC)s2)cc1,–,inactive: -18.4%
CNC(=O)C12CC3CC(C1)CC(c1ccc(C)cc1)(C3)C2,"inconclusive [activator, single point]",–
CCC(=O)Nc1ccc(S(=O)(=O)Nc2ccc(Cl)nn2)cc1,"inconclusive [activator, single point]",–
CCN(CC)C(=S)SCC(=O)c1ccc(Br)cc1,–,inactive: -1.3%
COc1ccc(CNC(=O)c2sc(=O)n(Cc3ccc(-c4ccccc4)cc3)c2C)cc1OC,–,inactive: -3.22%
Cc1cc(NC(=O)COC(=O)C2CC(=O)N(c3ccc(Cl)cc3)C2)no1 (stereo unspecified),–,inactive: 16.4%
COc1ccccc1N1CCN(C(=O)CCc2c[nH]c3ccccc23)CC1,"inconclusive [activator, partial curve]",–
COc1ccccc1-c1nc(=S)c(C(C)=O)c(C)[nH]1,"inconclusive [activator, partial curve, poor fit]",–
CCOC(=O)c1scc(-c2ccccc2)c1S(=O)(=O)Nc1ccc(N(C)C)cc1,–,inactive: -7.82%
Cc1ccc(C)c(NC(=O)C(Sc2nncn2C)c2ccccc2)c1 (stereo unspecified),"inconclusive [activator, partial curve, poor fit]",–
Cc1ccccc1NC(=S)NCc1ccc(F)cc1,"inconclusive [activator, single point]",–
CCCC(=O)NC(c1ccc(C)cc1)c1ccc2cccnc2c1O (stereo unspecified),"inconclusive [activator, single point]",–
COC(=O)c1ccccc1NC(=O)c1cc(-c2ccc(Cl)cc2)on1,–,inactive: -11.7%
Cc1ccc(-c2noc(CCCc3ccccc3)n2)cc1,"inconclusive [activator, partial curve, poor fit]",–
Cc1nc(Nc2ccc(Cl)c(Cl)c2)sc1C(=O)Nc1ccccc1,"inconclusive [activator, partial curve, poor fit]",–

Structure (SMILES),Potency,growth rescue
O=C1CCCN1CCCNS(=O)(=O)c1cccs1,–,inactive: -8.44%
O=C(NC(=S)Nc1ccccc1N1CCCC1)c1cccs1,active: 11.2 µM,–
CS(=O)(=O)c1ccc(S(=O)CC(=O)Oc2ccc(Cl)cc2)c([N+](=O)[O-])c1 (stereo unspecified),–,inactive: -51.9%
COc1ccc(S(=O)(=O)CCC(=O)N(C)c2ccc(OC)cc2OC)cc1,–,inconclusive: -38.2% [activator]
CCC(C(=O)NCCc1ccccc1)n1nc(C)c2sc3ccccc3c2c1=O (stereo unspecified),"inconclusive [activator, partial curve]",–
CC(=O)NC1(c2cccc(F)c2)CCN(C(=O)Nc2ccc(C#N)cc2)CC1,"inconclusive [activator, single point]",–
O=C(C1CCN(c2ncnc3c2nc2n3CCCCC2)CC1)N1CCN(c2ccccc2F)CC1,inactive,–
C(=NOCc1ccccc1)c1ccccn1,"inconclusive [activator, single point]",–
CCCS(=O)(=O)Nc1ccc(N2CCCCC2)c(S(=O)(=O)Nc2ccccc2OC)c1,"inconclusive [activator, full curve]",–
NC(=S)NN=C(Cc1ccccc1)Cc1ccccc1,"inconclusive [activator, partial curve, poor fit]",–
O=C(Nc1nc2ccccc2[nH]1)C12CC3CC(CC(C3)C1)C2,"inconclusive [activator, partial curve, poor fit]",–
CC1Oc2ccccc2N(CC(=O)c2ccc(F)cc2)C1=O (stereo unspecified),"inconclusive [activator, single point]",–
CC(=O)Nc1cccc(NC(=O)COc2ccc3c(c2)OCO3)c1,"inconclusive [activator, single point]",–
CCOC(=O)c1ccccc1NC(=O)CN(c1cccc(C)c1C)S(=O)(=O)c1ccccc1,–,inactive: 0.14%
COc1ccc(C2(Nc3cccc(F)c3)C(=O)c3ccccc3C2=O)cc1,"inconclusive [activator, partial curve]",–
CCCc1cc(=O)[nH]c(SCC(N)=O)n1,–,inactive: -2.03%
CCCCn1c(-c2sccc2C)n[nH]c1=S,"inconclusive [activator, single point]",–
COc1ccccc1CC(=O)Nc1cc(OC)c(NC(=O)c2ccccc2)cc1OC,"inconclusive [activator, full curve, poor fit]",–
Clc1ccc(-c2nnc(C3CCCCC3)o2)cc1,–,inactive: -7.47%
S=C(NC1CCCCC1)NC1CC2C=CC1C2 (stereo unspecified),active: 11.2 µM,–
CCOc1cccc(C(=O)NC(=S)Nc2cccc(C)c2)c1,"inconclusive [activator, partial curve, poor fit]",–
Cc1ccc2[nH]cc(CCNC(=O)c3ccc([N+](=O)[O-])cc3)c2c1,"inconclusive [activator, single point]",–
O=C(CN1C(=O)/C(=C\c2ccccc2Cl)Oc2ccccc21)NCc1cccnc1,"inconclusive [activator, partial curve]",–
CCCNC(=O)c1onc(CSc2ccc(F)cc2)c1C(=O)NCC1CC1,"inconclusive [activator, single point]",–

Structure (SMILES),Potency,growth rescue
Cc1nnc(SC(C)C(=O)NCC2CCCO2)s1 (stereo unspecified),–,inactive: -7.3%
CCOC(=O)[C@]12CCCC=C1N(CCC1=CCCCC1)C(=O)[C@H](CC(=O)NCCc1ccccc1OC)C2,–,inactive: -2.33%
N#C/C(=C(/O)COC(=O)Cc1c[nH]c2ccccc12)c1nc2ccccc2[nH]1,"inconclusive [activator, full curve]",–
O=C(CN1CCCN(Cc2ccccc2F)S1(=O)=O)Nc1ccc(F)c(Cl)c1,"inconclusive [activator, single point]",–
O=C(Nc1cccc(C(F)(F)F)c1)c1cnn(-c2cccc(F)c2)c1C1CCNCC1,–,inactive: -9.83%
CC(C)(C)c1ccccc1NC(=O)c1ccco1,"inconclusive [activator, single point]",–
CC(C)(C)c1ccc(C(=O)NCCc2csc(-c3ccc(Cl)cc3)n2)cc1,–,inactive: -1.35%
CCOC(=O)C(C)(C)N(Cc1ccccc1C)S(=O)(=O)c1ccc(Cl)c([N+](=O)[O-])c1,"inconclusive [activator, single point]",–
CCN1C(=O)[C@H]2[C@@H](c3ccc(C(F)(F)F)cc3)N[C@]3(CCCN(Cc4ccc(Cl)cc4)C3=O)[C@H]2C1=O,"inconclusive [activator, single point]",–
Cc1c(C(=O)N(CCO)Cc2ccccc2)oc2c(F)cccc12,–,inactive: 8.97%
C=CCOc1ccc(C=Nc2ccc(Cl)cc2)c(O)c1,"inconclusive [activator, full curve, poor fit]",–
CCCCc1c(O)nc(SCC(=O)NC(C)(C)C)n(-c2ccccc2C)c1=O,"inconclusive [activator, partial curve, poor fit]",–
CC(=O)N1c2ccc(S(=O)(=O)N3CCCC3C(=O)NCc3ccc(Cl)cc3)cc2CC1C (stereo unspecified),–,inactive: 11.9%
CC(=O)NCc1ccc(C(=O)CCl)cc1,–,inactive: -28.7%
O=C(COc1cc2oc(=O)c3c(c2cc1Cl)CCC3)NCc1ccncc1,"inconclusive [activator, single point]",–
COc1ccc(NC(=O)CSc2nccn2Cc2ccccc2)c(OC)c1,"inconclusive [activator, single point]",–
O=C(CC(=O)c1c(F)cccc1Cl)c1ccccc1O,–,inactive: -39.6%
CCOc1ccc(NC(=O)c2cccc(OC(=S)N3CCC(C)CC3)c2)cc1,"inconclusive [activator, partial curve]",–
O=C1C(Cc2ccccc2)Nc2ncnc(N3CCCCC3)c2N1Cc1ccc(Br)cc1 (stereo unspecified),"inconclusive [activator, single point]",–
COc1cnc(-c2ccccn2)nc1Sc1cccc(Cl)c1,"inconclusive [activator, single point]",–
O=S(=O)(NCCc1csc2nc(-c3ccccc3)nn12)c1cc(F)ccc1F,"inconclusive [activator, single point]",–
Cn1c(=O)c2nc(-c3ccccc3)oc2c2ccccc21,–,inactive: 1.91%
CC1CCCC(NC(=O)NC(=O)COC(=O)C2=NN(c3ccccc3)C(=O)CC2)C1C (stereo unspecified),"inconclusive [activator, single point]",–
